From PubChem BioAssay AID463173 (ICCB-Longwood Screening Facility, Harvard Medical School, 2010) come the findings set out here.

Screen size: about 52,000 compounds; about 1,700 (3.3%) were called active. Cut-off read from the data, not from the text of the source: active = survival mostly below about 52% (no sharp cut-off); inactive = mostly above about 56%. This is one part of the list.

This test concerns Wild type. In words: growth inhibition of S. aureus wild type versus tarO mutant, primary screen, teichoic acid synthesis inhibitors, RN4220, OD600 (AID 463173). As to conditions: S. aureus RN4220 wild type/DeltatarO growth, OD600, 18 h, stronger effect = lower value, screened at 18.75 µg/mL (by protocol).
Regarding `Cc1cccc(NC(=O)c2oc3ccccc3c2NC(=O)c2cc(=O)c3cc(Cl)ccc3o2)c1`, the survival is inactive: 85%. Next, `COc1ccc2cc(CN(CC3COCCO3)S(=O)(=O)c3c(C)cc(C)cc3C)c(=O)[nH]c2c1` (centres undefined): inactive: 106%; `COc1ccccc1C(=O)Nc1c(C(=O)N(C)c2ccccc2)sc2nc(C)cc(C)c12`: inactive: 91%. Turning to `O=C(CCS(=O)(=O)c1cc(Br)cc2c1N(C(=O)C1CC1)CC2)Nc1ccc(C(F)(F)F)cc1`, the survival is inactive: 81%. `COc1cccc(CNC(=O)CN2C(=O)COc3ccc(S(=O)(=O)Nc4ccccc4)cc32)c1`: the survival was inactive: 73%.

On to `Cn1c(=O)c2sccc2n2c(CCC(=O)NCc3ccccc3Cl)nnc12`, for which the survival was inactive: 146%. Next, `CN(Cc1ccccc1)C(=O)C1CCN(S(=O)(=O)c2ccc3nc4c(c(C(=O)O)c3c2)CCCC4)CC1`: inactive: 87%; `COc1ccc(CNC(=O)C2CCN(C(=O)N3CC(C)Oc4ccc(C)cc43)CC2)cc1` (centres undefined): inactive: 114%. Next, `Cc1ccc(S(=O)(=O)Nc2nc3n(n2)C(c2ccccc2Cl)C=C(c2ccccc2)N3)cc1` (centres undefined): inactive: 53%. Then `O=C(NC1CCCC1)C1C2C=CC(C2)C1C(=O)N1CCOCC1` (centres undefined), with inactive: 124%. Consider `COc1ccc(-c2nc(Cn3c(SCc4ccccc4F)nc4ccncc43)c(C)o2)cc1OC`, for which the survival was inactive: 66%.

In the case of `CCOc1ccc(C(=O)Nc2cc(-c3cn4cccnc4n3)ccc2C)cc1OCC`, the survival was inactive: 83%. On to `CCOC(=O)c1c(C(F)(F)F)cc(-c2ccccc2)nc1C`, for which the survival was inactive: 102%.

Turning to `O=C1CCCN1C(=O)CCC(=O)N1CCCC1=O`, the survival is inactive: 102%. Next, `Cc1cc(C)cc(NC(=O)C2CCC(CNS(=O)(=O)c3ccc4c(c3)C(C)(C)C(=O)N4C)CC2)c1` (centres undefined): inactive: 115%; `COc1ccc(CCNC(=O)c2c(C)oc3ncn(CC(C)C)c(=O)c23)cc1OC`: inactive: 55%; `CCn1cc(C(=O)NCCc2ccc(C)cc2)c(=O)c2cc(S(=O)(=O)N3CCCCC3)ccc21`: inactive: 139%.

As for `CC1CCN(c2ncnc3c2nnn3C)CC1`, the survival is inactive: 83%. Then `CCc1ccc2[nH]c(=O)c(C(c3nnnn3C3CCCCC3)N3CCCC3)cc2c1` (centres undefined), with inactive: 112%; and `O=C(Cn1c(=O)n(-c2ccc(Cl)cc2)c(=O)c2oc3ccccc3c21)Nc1ccccc1`, with inactive: 99%; and `O=C(c1ccco1)N1CCN(c2nc3c(Cl)cccc3s2)CC1`, with inactive: 133%. Next, `CCN(CC)S(=O)(=O)c1nnc(NC(=O)c2ccc(C(C)C)cc2)s1`: inactive: 55%; `COc1ccc(C2=C(C)C(=O)N(Cc3ccc(C(=O)Nc4cc(C)ccc4C)cc3)S2(=O)=O)cc1`: inactive: 85%; `O=C(Cc1ccc(Cl)cc1)NCC(c1cccs1)S(=O)(=O)c1ccc(F)cc1` (centres undefined): inactive: 66%. Then `Cn1cnc(S(=O)(=O)N2CCC(C(=O)NCc3ccc(F)cc3)CC2)c1`, with inactive: 65%. With `COc1cccc(C(=O)Nc2ccccc2-c2nnc(-c3cc(OC)ccc3Br)o2)c1`, the survival is inactive: 80%. In the case of `Cc1cccc(N2CCN(CCCNC(=O)c3nnc(Cc4c(F)cccc4Cl)o3)CC2C)c1` (centres undefined), the survival is inactive: 81%. Consider `Cc1nn2c(=O)cc(COC(=O)c3cccc(NC(=O)c4ccc(C(C)(C)C)cc4)c3)nc2s1`, for which the survival was inactive: 58%. Next, `CCCCSC1=NC(C)(C)CC(C)O1` (centres undefined): inactive: 103%. Next, `CC1SC(NC(=O)COc2ccccc2)=NC1=O` (centres undefined): inactive: 110%; `COc1cccc(C(=O)Nc2ccc3nc(N4CCC(C)CC4)cc(C)c3c2)c1`: inactive: 57%.

Consider `O=C(COC(=O)c1cccc(NC(=O)c2ccc(Br)cc2)c1)c1ccc(Br)cc1`, for which the survival was inactive: 85%. With `CCOC(=O)c1[nH]c2c(c1Cc1ccccc1OC)C(=O)CC(c1ccc(OCC)cc1)C2` (centres undefined), the survival was inactive: 110%. With `O=C(NCc1ccc2c(c1)OCO2)c1ccccc1Cl`, the survival is inactive: 97%. Next, `COc1ccc(C(=O)CCC(=O)Nc2ccc(OC)c(Cl)c2)cc1`: inactive: 91%; `Cc1ccc(S(=O)(=O)c2nc(S(C)(=O)=O)sc2NCc2ccccc2)cc1`: inactive: 88%. Next, `CCOC(=O)c1c(C)oc2nc(C)nc(NCCc3ccc(SC)cc3)c12`: inactive: 75%; `CC(C)COC(=O)Cc1c(O)c2ccccc2[nH]c1=O`: inactive: 113%. Regarding `COc1cc(NC(=O)Cn2nc(-c3ccc(C)c(C)c3)ccc2=O)cc(OC)c1`, the survival is inactive: 76%.

`CCN(CC)S(=O)(=O)c1ccc2c(c1)N(CC(=O)Nc1ccc(C)cc1C)C(=O)C1CCCN21` (centres undefined): the survival was inactive: 82%. Next, `CC(C)NC(=O)c1ccccc1NC(=O)c1nsc2ccccc12`: inactive: 53%. As to `COc1ccccc1N1CCN(c2nc3ccc(C)cc3n3nnnc23)CC1`, the survival is inactive: 133%. Next, `COc1ccc(C2=CC(c3cccc(C)c3)n3nnnc3N2)cc1` (centres undefined): inactive: 71%; `CCCCn1cc(S(=O)(=O)c2ccc(F)cc2)c(=O)c2ccccc21`: inactive: 83%. Next, `COc1ccccc1CNC(=O)c1ccc(-c2nc(CS(=O)c3ccccc3)c(C)o2)cc1` (centres undefined): inactive: 71%. As to `Cc1ccc(Cl)cc1NC(=O)CN1C(=O)COc2ccc(S(=O)(=O)N3CCOCC3)cc21`, the survival was inactive: 108%.

Take `CCOc1ccc2nc(N3CCCC(C(=O)Nc4cccc(Cl)c4C)C3)sc2c1` (centres undefined): the survival was inactive: 81%. Regarding `CCc1cc2c(cc3c(=O)n(CC(=O)N4CCCCC4)ncn32)s1`, the survival is inactive: 107%.

With `CCCCN(CCCC)CCNC(=O)c1cc(-c2cccnc2)nc2ccc(S(=O)(=O)N3CCC(C)CC3)cc12`, the survival was inactive: 72%.

Consider `COc1ccc(N(Cc2cccs2)C(=O)COc2ccc(C(C)C)cc2)cc1`, for which the survival was inactive: 78%.

For the compound `COc1ccc(S(=O)(=O)c2c(Nc3ccc(C)cc3)sc(C(=O)c3ccc4c(c3)OCO4)c2N)cc1`, the survival is inactive: 143%. Next, `Cc1cnc2c(c1SCC(=O)Nc1ccc(F)cc1F)c(=O)n(C)c(=O)n2C`: inactive: 76%; `COc1ccc(Cn2c(SCC(N)=O)nc3c(sc4ccccc43)c2=O)cc1`: inactive: 75%; `Cc1cc(F)ccc1NC(=O)C1CCCN(S(=O)(=O)c2ccc3c(c2)CCCC(=O)N3)C1` (centres undefined): inactive: 65%. With `Cc1ccc2[nH]c3c(=O)n(CC(=O)N4CCN(c5cccc(C(F)(F)F)c5)CC4)ncc3c2c1`, the survival was inactive: 77%.

`CCOc1ccc(N2C(=O)N(Cc3c(F)cccc3Cl)c3ccccc3S2(=O)=O)cc1`: the survival is inactive: 77%. On to `Cc1ccc(O)c(CNc2cccc3cccnc23)c1`, for which the survival is inactive: 107%. Next, `CN(C)c1ccc(CN(CC2CCCO2)C(=O)c2ccc(Br)cc2)cc1` (centres undefined): inactive: 88%; `Cc1ccc(-n2c(=O)c3ccc(C(=O)NCc4ccccc4Cl)cc3n(CC(=O)Nc3cccc(F)c3)c2=O)cc1`: inactive: 60%. Then `Cc1ccc2[nH]c(CSc3nnc(COc4ccccc4C)n3C)cc(=O)c2c1`, with inactive: 80%; and `COc1cccc(CNC(=O)CN2C(=O)CSc3c2c(C)nn3-c2ccccc2)c1`, with inactive: 74%; and `CCCN1C(=O)/C(=c2\sc3n(c2=O)C(c2ccccc2)C(C(=O)OC)=C(C)N=3)c2ccccc21` (centres undefined), with inactive: 106%.

Regarding `O=C(COCc1cc(-c2cccs2)on1)Nc1ccc(OC(F)(F)F)cc1`, the survival was inactive: 124%.

Take `Cc1cc2c(cc1C)NC(CC(=O)Nc1ccccc1SC(F)(F)F)C(=O)N2` (centres undefined): the survival was inactive: 90%. As to `CCCCOc1ccc(NC(=O)Cn2nnnc2-c2ccccc2F)cc1`, the survival was inactive: 91%.

Regarding `CC1CCCCN1C(=O)CSc1nc(C2CC2)nc2ccccc12` (centres undefined), the survival is inactive: 110%.

As to `COc1ccc2ncc3c(-c4ccc(C)c(C)c4)nn(CC(=O)NC4CCCCC4)c3c2c1`, the survival was inactive: 88%.

For `Cc1ccc(S(=O)(=O)c2nc(-c3ccco3)oc2SCC(C)C)cc1`, the survival is inactive: 39%. Next, `COc1cc(OC)c(NC(=O)Cn2cnc3sc(C)c(S(=O)(=O)N4CCN(C)CC4)c3c2=O)cc1Cl`: inactive: 142%; `CCOc1ccc(Br)cc1CNCCSc1nnnn1-c1ccccc1`: inactive: 38%. Next, `CCc1ccccc1NC(=O)CN1C(=O)c2cccnc2Oc2ccc(Cl)cc21`: inactive: 126%; `c1ccc2c3c([nH]c2c1)-c1nonc1CC3`: inactive: 120%; `CCc1ccc(NC(=O)c2nn(-c3ccc(C)cc3)c(=O)n(C)c2=O)cc1`: inactive: 73%.

As for `CC(C)(C)OC(=O)N1CCC(c2c(C(=O)Nc3ccc4c(c3)OCCO4)cnn2-c2ccccc2)CC1`, the survival was inactive: 80%. Consider `COC(=O)NCc1c(C)nn(-c2ccccc2)c1-n1cccc1`, for which the survival is inactive: 88%. Then `CCOC(=O)c1oc2c(c1C)-c1nn(Cc3ccccc3Cl)cc1CC2`, with inactive: 41%. Take `Cc1ccc(C)c(NC(=O)C(=O)NCCc2csc3nc(-c4ccccc4C)nn23)c1`: the survival was inactive: 129%. With `c1ccc(CN2CCCC2)nc1`, the survival was inactive: 113%. Next, `COc1ccc(CNC(=O)c2cc3c(s2)-c2c(C)cccc2OC3)cc1`: inactive: 83%; `Cc1cccnc1Nc1nc(-c2cccnc2)cs1`: inactive: 122%.

For `CCCS(=O)(=O)N1CC(=O)N(c2ccccc2C)C(C)(C(=O)NC2CCCC2)C1` (centres undefined), the survival is inactive: 73%. In the case of `CNC(=O)c1sc2ncccc2c1-n1cccc1`, the survival is inactive: 130%. For the compound `CCOC(=O)N1CCC2(CC1)OC(=O)C(C)=C2C(=O)NCc1cccc(OC)c1`, the survival was inactive: 131%. Next, `COc1ccc(NC(=O)CC2C(=O)N(c3ccc(C)cc3)C(=O)N2Cc2cccnc2)cc1` (centres undefined): inactive: 81%; `Cn1c(=O)n(-c2cccc(Cl)c2)c(=O)c2sc3ccccc3c21`: inactive: 71%; `Cc1cc(NC(=O)Cn2nc(C)n3cccc3c2=O)ccc1Br`: inactive: 86%.

For the compound `O=C(CN1CCCCC1)N/N=C/c1ccc(Cl)cc1`, the survival is inactive: 102%.

For the compound `CCN1CCN(Cc2c(O)ccc3c(C)c(-c4ccccc4)c(=O)oc23)CC1`, the survival is inactive: 74%. For `CCCCN1C(=O)CN(C2CCCCC2)C(=O)C1c1ccc(OC(C)C)c(OC)c1` (centres undefined), the survival is inactive: 81%.
